This is one part of the list.

For this assay, the system named is T1, C. trachomatis L2/434/Bu expressing GFP (CTL2-GFP).
T1 construct: L2/434/Bu GFP intracellular growth in HeLa cells
Details: species or system HeLa; C. trachomatis total inclusion area by high-content imaging, normalised to DMSO. The following applies: total inclusion area; 28.5 h, 10 µM; inhibitor. The method in brief: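 Post-fluorescence-read fixation, DNA staining with Hoechst and high-content imaging; GFP inclusion area and number per well, and nuclei counts, used as proxies for bacterial growth and host viability.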
For `Cc1nccn1CCC(=O)N1CCc2[nH]c3ccccc3c2C1` [CBK281882], the “% of control remaining” value is 87.6256.

In the case of `O=P(O)(COc1ccccc1)COc1ccccc1` [CBK261620], the “% of control remaining” value was 83.426.

Take `CCCCc1c(Cl)nc(C#N)c2c1CCCC2` [CBK020252]: the “% of control remaining” value stood at 32.3605.

On to `CC(=O)N1CCCCC[C@@H]2[C@@H]1C[C@@H](Cc1ccccc1)N2C(=O)c1ccccc1` [CBK285576], for which the “% of control remaining” value was 85.177.

As for `N#Cc1cccc(C(=O)NCCc2cn3c(n2)CCCC3)c1` [CBK305046], the “% of control remaining” value was 52.3802.

On to `COc1ccc(N(C(C)C(=O)N/N=C2\C(=O)Nc3ccccc32)S(C)(=O)=O)cc1` (stereo not shown) [CBK262408], for which the “% of control remaining” value turned out to be 107.955.

Regarding `O=C(C1CC1)N1CCC(Cn2nc(-c3ccccc3)ccc2=O)CC1` [CBK284115], the “% of control remaining” value amounted to 78.322.

In the case of `O=S1(=O)CC(NCc2ccccc2)C(Nc2ccccc2)C1` (stereo not shown) [CBK265797], the “% of control remaining” value is 117.231.

Consider `O=c1cc2nc(-c3ccccc3F)[nH]c(=S)n2[nH]1` [CBK288402], for which the “% of control remaining” value came to 45.7924.

As for `COc1ccc(Nc2nc(-c3cccc(N)c3)cnc2N)cc1` [CBK063585], the “% of control remaining” value amounted to 131.574.

With `COc1cc(CNc2cc(-c3ccsc3)ncn2)cc(OC)c1OC` [CBK037794], the “% of control remaining” value is 124.807.

In the case of `CSc1nsc(SCC(=O)Nc2cccc(NC(C)=O)c2)n1` [CBK269833], the “% of control remaining” value is 89.2409.

Take `COC(=O)c1ccsc1NS(=O)(=O)c1cc(Cl)sc1Cl` [CBK039062]: the “% of control remaining” value is 83.4852.

Take `CCCc1cc(-c2c(Cl)cccc2Cl)[nH]n1` [CBK107818]: the “% of control remaining” value was found to be 85.8434.

In the case of `CC(C)c1nccn1CCC(=O)N1CCC(c2ccncc2)CC1` [CBK283512], the “% of control remaining” value worked out at 58.0663.

Take `O=C(NCc1ccc2c(c1)OCO2)c1ccc2c(c1)C(=O)N(Cc1cccnc1)C2=O` [CBK267824]: the “% of control remaining” value was 80.4532.

As to `CC(C)(CO)CNc1nc(-c2ccc3c(c2)OCO3)cnc1N` [CBK063459], the “% of control remaining” value stood at 136.356.

Regarding `Cc1c(C(=O)N2CC(n3cc(C(C)(C)O)nn3)C2)sc2cccc(F)c12` [CBK306398], the “% of control remaining” value is recorded as 13.043.

Regarding `Nc1cccc(-c2nccnc2NCc2cccs2)c1` [CBK037537], the “% of control remaining” value came out at 101.092.

As to `Cn1cc(CCO)c2ccccc21` [CBK081087], the “% of control remaining” value was found to be 104.578.

On to `CN1CCC(N2CCN(C(=O)c3ccc(-c4ccc(S(C)(=O)=O)cc4)nc3)CC2)CC1` [CBK158862], for which the “% of control remaining” value is 100.52.

For the compound `COc1ccc(S(=O)(=O)NCCNC(=O)c2ccc(-c3cccc(Cl)c3Cl)nc2NCc2cccnc2)cc1` [CBK076436], the “% of control remaining” value is 68.9542.

With `COc1ccc(C(=O)C2=C(O)C(=O)N(CCN3CCOCC3)C2c2ccc(Cl)cc2)cc1` (stereo not shown) [CBK264718], the “% of control remaining” value was 121.215.

As for `Cn1c(=O)n(CC(=O)N2CCCc3ccccc32)c2cccnc21` [CBK283790], the “% of control remaining” value stood at 81.3059.

`Cc1nc(CCCn2cnc3ncccc3c2=O)sc1C` [CBK306953]: the “% of control remaining” value is reported as 92.0665.

Consider `COc1cncc(C(NC(=O)c2ccc3c(c2)CCC3)[C@H]2C[C@H](O)C2)c1` (stereo partly shown) [CBK307646], for which the “% of control remaining” value amounted to 53.7694.

With `CC(CCN1CCN(C)CC1)c1ccccc1` (stereo not shown) [CBK261881], the “% of control remaining” value was found to be 104.922.

Take `CCOC(=O)CN1CCN(C(=O)Nc2ccccc2OC(F)(F)F)CC1` [CBK043656]: the “% of control remaining” value amounted to 90.8665.

As to `O=C(O)COCCn1cc(-c2ccc(Cl)cc2)cn1` [CBK021914], the “% of control remaining” value is given as 43.7207.

As to `CN(C(=O)C1CC1)c1nc2c(s1)CCc1c-2cnn1C` [CBK281927], the “% of control remaining” value is given as 76.7944.

Take `Cn1c(=O)[nH]c(=O)c2c1nc(SCCN1CCOCC1)n2CCCc1ccccc1` [CBK269234]: the “% of control remaining” value is on record as 114.078.

As to `O=C1COc2ccccc2C/C=C/CC2(CCN(C(=O)c3n[nH]c4c3CCC4)CC2)CN1` [CBK292019], the “% of control remaining” value came out at 93.6025.

As to `COc1ccc(S(=O)(=O)NC(C)C(=O)Nc2cc(Cl)ccc2OC)cc1` (stereo not shown) [CBK269479], the “% of control remaining” value is listed as 67.0599.

On to `O=C(c1cncnc1)N1CCC(Cn2cncn2)(C2CCCCC2)CC1` [CBK136823], for which the “% of control remaining” value was found to be 99.699.

For the compound `Cc1[nH]c(=O)c(C#N)cc1C(=O)N(C)Cc1cc(-c2ccncc2)no1` [CBK306859], the “% of control remaining” value is 65.2931.

Regarding `Cc1cc(COc2nccnc2N2CCN(Cc3ccc(C(C)C)cc3)CC2)no1` [CBK084186], the “% of control remaining” value came out at 113.924.

For the compound `CCOC(=O)c1ccc(NC(=S)NCCN(CC)CC)cc1` [CBK018358], the “% of control remaining” value is on record as 15.5937.

Consider `CC(C)Cc1noc(CN2CCC(C(=O)NCc3ccco3)CC2)n1` [CBK305995], for which the “% of control remaining” value was determined as 38.2224.

Consider `COc1cccc(CNC23CC4CC(CC(C4)C2)C3)c1OCc1ccccc1` [CBK268873C], for which the “% of control remaining” value amounted to 75.097.

For the compound `Cc1ccc(Cc2cnc(NC(=O)C3CCOCC3)s2)cc1F` [CBK306130], the “% of control remaining” value amounted to 11.7289.

Take `O=C(NCCc1cccs1)Nc1cccc(SC(F)(F)F)c1` [CBK044999]: the “% of control remaining” value was 95.7801.

As for `Cc1ccc(S(=O)(=O)Cc2ccc(C(=O)N3CCN(Cc4ccccc4)CC3)cc2)cc1` [CBK269588], the “% of control remaining” value is 88.9745.

`O=C(Nc1cc2nn(-c3ccccc3)nc2cc1Cl)c1ccc(-c2cccc([N+](=O)[O-])c2)o1` [CBK266271]: the “% of control remaining” value worked out at 142.885.

For `Cc1ccnc(SCC(=O)N2CCc3ccccc3C2)n1` [CBK288218], the “% of control remaining” value is 86.7051.

As for `COc1cccc(COc2cncc(Cl)n2)c1OC` [CBK176057], the “% of control remaining” value is given as 57.8556.

For `CCOC(=O)c1ccc(-c2ccc(/C=C/c3nn4cnnc4c(O)c3[N+](=O)[O-])o2)cc1` [CBK268409], the “% of control remaining” value turned out to be 115.88.

With `Cc1cc(CN2CCC(C(=O)c3ccc(F)cc3)CC2)no1` [CBK149121], the “% of control remaining” value is 100.506.

In the case of `O=C1C2CCCCC2C(=O)N1c1ccc(Oc2ccc(Br)cc2)cc1` (stereo not shown) [CBK263531], the “% of control remaining” value worked out at 79.7711.

Take `CC(C)[C@@H](CO)Nc1cc(Cl)nc2ccnn12` [CBK037242]: the “% of control remaining” value was 139.637.

On to `CC1(C)CC(=O)C=C(C(=O)NCc2cccs2)O1` [CBK153292], for which the “% of control remaining” value worked out at 105.69.

As to `Cc1nn(C)cc1C(=O)O[C@H]1C[C@@H](c2ccc(F)cc2)N(C)C1=O` [CBK283615], the “% of control remaining” value worked out at 55.2516.

For the compound `N[C@H]1CC[C@H](N(CCc2ccccc2)C(=O)N[C@@H]2C[C@H]2c2ccccc2)CC1` [CBK000474C], the “% of control remaining” value came to 56.9302.

Regarding `O=C(c1cnn(C(=O)c2ccc3c(=O)n4c(nc3c2)CCC4)c1)c1ccccc1O` [CBK295145], the “% of control remaining” value is on record as 99.9432.

Take `O=C(COc1ccccc1Cl)NC(=S)Nc1cccc(C(=O)O)c1` [CBK265662]: the “% of control remaining” value is reported as 111.076.

In the case of `O=C(Nc1ccc(S(=O)(=O)NCCc2ccccc2)cc1)c1ccc2c(c1)OCO2` [CBK265591], the “% of control remaining” value stood at 82.2807.

Consider `COc1ccc2[nH]cc(CC(=O)NCc3ccc(-c4csnn4)cc3)c2c1` [CBK149313], for which the “% of control remaining” value worked out at 89.8742.

Take `CCN(CC)C(=O)CCn1c(-c2ccc(C)nc2)cc2cccnc21` [CBK282150]: the “% of control remaining” value is recorded as 96.6135.

On to `COc1ccc(Br)cc1C(=O)NCC1(c2ccccc2)CCOCC1` [CBK067051], for which the “% of control remaining” value was 81.9957.

Regarding `COc1cccc(CN2C(=O)COc3ccc(C(=O)c4cccs4)cc32)c1` [CBK286412], the “% of control remaining” value worked out at 82.4171.

Regarding `CS(=O)(=O)c1ccc(NC(=S)N2CCN(c3ccc(F)cc3)CC2)cc1` [CBK300507], the “% of control remaining” value was 91.8967.

Consider `Cc1ccc(C)c(NC(=O)N2CCC3(CCc4nccc(C)c4C3=O)CC2)c1` [CBK059554], for which the “% of control remaining” value came to 54.5983.

For `C=CCn1c(SCC(=O)Nc2ccc(C(=O)OC)cc2)nnc1-c1ccc(Br)cc1` [CBK101797], the “% of control remaining” value was determined as 94.0586.

With `COc1ccc(OCCNC(=O)c2cc(Br)cnc2N(C)C(C)=O)cc1` [CBK076467], the “% of control remaining” value is listed as 83.9795.

On to `CC(C)n1nccc1C(=O)N1CCCC(c2cc3cccnc3[nH]2)C1` (stereo not shown) [CBK284930], for which the “% of control remaining” value is reported as 73.4687.

In the case of `O=[N+]([O-])c1ccc(O)c(/C=N/c2ccc3cc4ccc(/N=C/c5cc([N+](=O)[O-])ccc5O)cc4nc3c2)c1` [CBK261557], the “% of control remaining” value was determined as 56.4278.

For `CN(C)C(c1ccc2c(c1)OCO2)c1nnnn1C1CCCCC1` (stereo not shown) [CBK020620], the “% of control remaining” value amounted to 97.2666.

Consider `COc1ccc2c(c1)C1(CC(=O)N(CC(=O)N(C)C)C1=O)C(=O)N2Cc1ccc2ccccc2n1` (stereo not shown) [CBK075923], for which the “% of control remaining” value amounted to 100.073.

`O=c1[nH]c2ncc(-c3ccc4c(c3)OCO4)nc2n1C1CC1` [CBK064922]: the “% of control remaining” value is reported as 136.193.

Consider `COCCOC(=O)C1=C(C)N(c2ccc(C(=O)O)cc2)C(=O)NC1c1ccccc1Cl` (stereo not shown) [CBK296986], for which the “% of control remaining” value came to 87.0303.

`O=[N+]([O-])c1ccc2c(c1)C(N1CCOCC1)/C(=C/COc1ccc3ccccc3c1Br)O2` (stereo not shown) [CBK262738]: the “% of control remaining” value was 96.5809.

For `c1cnn(C2CCCN(Cc3ccc(Oc4cnccn4)cc3)C2)c1` (stereo not shown) [CBK304043], the “% of control remaining” value came to 85.5437.

On to `O=C1C2C=NNC2C(=O)N1c1ccccc1` (stereo not shown) [CBK022326], for which the “% of control remaining” value amounted to 84.5319.

With `Cc1ccc2[nH]c(SCC(=O)Nc3cccc(NC(=O)C45CC6CC(CC(C6)C4)C5)c3)nc2c1` [CBK265679], the “% of control remaining” value is on record as 89.4917.

Consider `Cc1ccc(N2C(=O)c3ccc(C(=O)OCc4ccc([N+](=O)[O-])cc4)cc3C2=O)cc1Cl` [CBK265730], for which the “% of control remaining” value came out at 85.1675.

Turning to `CS(=O)(=O)Nc1ccc2cc(-c3cccc(C(F)(F)F)c3)cnc2n1` [CBK085671], the “% of control remaining” value is reported as 97.7844.

With `Cc1nc2ccc(C(=O)N(C)CCN3CCCCC3)cc2s1` [CBK281919], the “% of control remaining” value is on record as 89.1419.

In the case of `Cc1ccc(C(=O)N2CN(C(=O)CNC(C)(C)C)CC2(C)C)cc1` [CBK089575C], the “% of control remaining” value came to 36.4711.

As for `O=C(NCc1nnc2ccccn12)c1ccccc1` [CBK288064], the “% of control remaining” value stood at 101.006.

On to `Cc1noc(C)c1C(=O)N1CCOCC1` [CBK057765], for which the “% of control remaining” value came out at 76.4823.

The values are drawn from PMC12040169 (PLOS Biology, 2025).
